# Reference: the BET-seq Pho4 binding data (Le et al. 2018)
# The other results are listed elsewhere or left out. Values were computed here from the reads of four pooled replicates and scatter widely.
# Target: T1, Pho4 (S. cerevisiae) (UniProt P07270)
# T1 sequence: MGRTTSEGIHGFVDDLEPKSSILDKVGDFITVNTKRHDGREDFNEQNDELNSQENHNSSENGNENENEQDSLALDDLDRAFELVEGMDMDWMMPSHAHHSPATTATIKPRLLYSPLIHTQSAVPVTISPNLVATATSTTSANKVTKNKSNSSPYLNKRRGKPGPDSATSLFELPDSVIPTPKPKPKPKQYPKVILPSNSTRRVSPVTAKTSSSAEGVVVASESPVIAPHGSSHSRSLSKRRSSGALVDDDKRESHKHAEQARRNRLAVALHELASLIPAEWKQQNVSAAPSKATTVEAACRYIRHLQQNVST
# Test: relative binding free energy (BET-seq); higher = weaker binding
# Details: reference: library average
row,Sequence,relative binding free energy [kcal/mol]
1,GAAAGCACGTGGTTTA,-0.01
2,GGTGGCACGTGCAGGC,-0.08
3,TAGGGCACGTGACTTG,-0.08
4,CGTGACACGTGGTTTT,0.03
5,TTCTGCACGTGTTTAG,0.07
6,AGTGGCACGTGCGGAA,-0.2
7,TGAGTCACGTGTACAG,0.23
8,GATTTCACGTGTGTTA,0.14
9,TTATTCACGTGTCGTC,0.31
10,ATCGGCACGTGGGTCG,-0.23
11,AGAGGCACGTGGTATG,-0.22
12,TGTGGCACGTGTAGTG,-0.07
13,CTTTTCACGTGAAGGT,0.41
14,TGTTTCACGTGAGTCG,0.11
15,TGATTCACGTGAGAGG,0.55
16,TGCCGCACGTGTGGGA,-0.04
17,AGGGCCACGTGCGTGT,-0.2
18,ATGTGCACGTGTGCCG,-0.03
19,ATAGTCACGTGATTAT,0.15
20,TTCCGCACGTGAGGTT,0.08
21,TTAGACACGTGGATGG,0.03
22,TAGTGCACGTGGTGCA,-0.25
23,AAAAGCACGTGATTAT,0.19
24,TATGGCACGTGCAGAG,-0.11
25,CGTCGCACGTGAGGGT,0.07

row,Sequence,relative binding free energy [kcal/mol]
1,GGGTACACGTGAGAAT,0.29
2,TGTGCCACGTGACGTT,-0.01
3,GTAGTCACGTGTCGGG,0.32
4,TTGCTCACGTGGCGTT,0.14
5,TCTTTCACGTGTAAAG,0.4
6,GTGCTCACGTGGGAAG,0.19
7,AGTGTCACGTGGAAGG,0.08
8,TTGATCACGTGATGGT,0.34
9,GGACGCACGTGGGGTA,-0.35
10,AACTTCACGTGGGTTG,0.16
11,ATGTTCACGTGACTTG,0.23
12,GGGTTCACGTGGCGAG,0.24
13,GAGTACACGTGGAGAT,0.24
14,GTGGGCACGTGGTAAT,-0.08
15,CTCCGCACGTGTGGGG,-0.09
16,TGTATCACGTGTATCA,0.11
17,GATGGCACGTGGTGCA,-0.09
18,TCGTTCACGTGTGGGT,0.27
19,GTGGTCACGTGATTCG,0.26
20,TTTGGCACGTGATCGG,-0.07
21,GCGTGCACGTGCGTAG,-0.03
22,TATTGCACGTGTATCG,0.04
23,GGTGTCACGTGGGAGG,0.12
24,TTAGGCACGTGTAGGC,-0.11
25,GAGCGCACGTGGGGAT,-0.08

row,Sequence,relative binding free energy [kcal/mol]
1,ATACGCACGTGTGGCG,-0.01
2,AACGGCACGTGTGTGG,0.05
3,AAGTCCACGTGGTATG,0.04
4,TTTCGCACGTGGTTCT,-0.12
5,ATTTACACGTGTGTTA,0.11
6,CTCGTCACGTGCAGGG,0.13
7,TATTTCACGTGAGGGA,0.26
8,GGCGGCACGTGCGTGT,-0.17
9,GTGGTCACGTGTTCAT,0.21
10,GGTGACACGTGGTAAC,0.07
11,GTTACCACGTGGGTAG,-0.07
12,GATGGCACGTGGCGGG,-0.1
13,TTGGACACGTGTGGAA,0.2
14,GTGAGCACGTGTGGAA,-0.15
15,AGGTCCACGTGGTAAG,0.06
16,TGGTTCACGTGATATC,0.42
17,ACTTGCACGTGCGTGG,-0.11
18,ATAGGCACGTGTATTA,-0.04
19,GCGTGCACGTGGTGCG,-0.14
20,TTGGGCACGTGCATGG,-0.15
21,CTATGCACGTGTGGGA,0.01
22,GTGTTCACGTGCGTGC,-0.05
23,CGTGACACGTGGTTGC,-0.07
24,GTTGTCACGTGAGACA,0.25
25,TTAATCACGTGTTGTA,0

row,Sequence,relative binding free energy [kcal/mol]
1,CTATTCACGTGGGCTT,0.13
2,TTGGGCACGTGACGCA,0.01
3,TTGGCCACGTGGGAAG,-0.14
4,GTTGTCACGTGATCGT,0.24
5,ATAGACACGTGTCGGG,-0.03
6,TGTTCCACGTGGTTGT,0.02
7,GTTTGCACGTGTATTC,0.17
8,TTAGGCACGTGAGAAT,0.15
9,AAGCTCACGTGTTTTG,0.18
10,AGATGCACGTGCGTGT,-0.07
11,CGGGCCACGTGTAGTG,-0.11
12,CGTCGCACGTGCGGGT,-0.13
13,AATAGCACGTGAGGTG,0.12
14,CGTAGCACGTGGGTAT,-0.29
15,GTCGGCACGTGAGGTG,0.24
16,CGTGTCACGTGGTCTT,0.03
17,CGGGGCACGTGATTCT,0.02
18,GCTGGCACGTGGGGCA,-0.3
19,AGGGGCACGTGTCGTC,-0.03
20,TCAGTCACGTGGATTG,0.05
21,AGGAGCACGTGGATGT,-0.19
22,AGTATCACGTGATATA,0.19
23,AATGTCACGTGAAGGG,0.27
24,GTGGTCACGTGTCTGA,0.1
25,TATTGCACGTGATTTG,0.09

row,Sequence,relative binding free energy [kcal/mol]
1,TTGCGCACGTGCATGT,-0.09
2,TGTAACACGTGTGGCG,0.08
3,GTGTACACGTGTGATA,0.17
4,GGTATCACGTGGGGCA,0.01
5,TTAGCCACGTGTTGGT,-0.12
6,GATGGCACGTGTAAGG,0.07
7,CGGTTCACGTGTTTTA,0.35
8,AGGGCCACGTGGCCGG,-0.21
9,TTGCGCACGTGGGTTA,-0.11
10,TCGGACACGTGGTGGT,-0.03
11,AATGTCACGTGGTCGG,-0.02
12,TGTGGCACGTGATATT,0.09
13,ACGGTCACGTGTCGAT,0.4
14,TGTATCACGTGGACGT,0.15
15,CGTTTCACGTGTAAAT,0.33
16,TAGTGCACGTGGAAAA,0.1
17,CATTGCACGTGGTGGA,0.04
18,TGAATCACGTGTTCGG,0.13
19,GTTTTCACGTGGAAAA,0.33
20,TTTTACACGTGTTTTG,0.11
21,TAATTCACGTGTGTAT,0.16
22,ATGATCACGTGCGAGT,0.06
23,TTTTACACGTGGAATT,0.28
24,AGGTGCACGTGTGTTT,0.01
25,TTGATCACGTGGTTCT,0.11

row,Sequence,relative binding free energy [kcal/mol]
1,TCGGGCACGTGTATGA,-0.1
2,GGTAACACGTGTATGA,0.03
3,GTTGGCACGTGCGTCG,-0.21
4,ATTTGCACGTGTTAGT,0.1
5,ATGTGCACGTGATGTA,0.02
6,GGGCTCACGTGAGGTC,0.53
7,AGGGGCACGTGGCCGG,-0.19
8,AGAGACACGTGTGGTA,0.09
9,TAAGGCACGTGTAAGG,-0.11
10,TTTAGCACGTGGCGAT,-0.11
11,CGGGACACGTGGATTG,-0.06
12,TCGATCACGTGTGGGA,0.19
13,ATAGGCACGTGTAGTT,0.02
14,TGTAACACGTGGCTTG,0.02
15,GTTGGCACGTGGGGTC,-0.16
16,ATGAGCACGTGTGAAT,0.06
17,GGTGACACGTGAGGTA,0.15
18,TTTTCCACGTGTTACT,0.1
19,GGTGTCACGTGCATAG,0.07
20,TGGGGCACGTGCGTGT,-0.16
21,AGCGGCACGTGTTGGT,-0.04
